# Reference: ChEMBL document CHEMBL5674866 (J Biol Chem, 2015)
# Key:
# KYSE-150 cell line [1] = test: Effect on cellular post-translational modifications on histone H3 (TKQTAR) - K4 unmethylated in human KYSE-150 cells assessed as fold change by mass spectrometric analysis; assay type: functional
# Method in brief: (§1)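 Histones acid-extracted from SMYD2-overexpressing KYSE-150 cells treated with vehicle or 5 μM inhibitor. Samples derivatized with propionic anhydride, then trypsin-digested for 6 h at 37 °C. Each modification's relative abundance on a peptide sequence, as a percentage, was quantified from MS and MS/MS spectra and compared with vehicle.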
# KYSE-150 cell line [2] = test: Effect on cellular post-translational modifications on histone H3 (EIAQDFKTDLR) - K79 unmethylated in human KYSE-150 cells assessed as relative abundance at 5 by mass spectrometric analysis (reference value: 78.6+/-4.1); assay type: functional; details: dose 5 µM
# [3] = biological target: Serine/threonine-protein kinase 26 (Homo sapiens, UniProt Q9P289); test: Inhibition of human MST4 by discoverX kinome scan assay
# Chain of UniProt Q9P289 (Q9P289 whole entry): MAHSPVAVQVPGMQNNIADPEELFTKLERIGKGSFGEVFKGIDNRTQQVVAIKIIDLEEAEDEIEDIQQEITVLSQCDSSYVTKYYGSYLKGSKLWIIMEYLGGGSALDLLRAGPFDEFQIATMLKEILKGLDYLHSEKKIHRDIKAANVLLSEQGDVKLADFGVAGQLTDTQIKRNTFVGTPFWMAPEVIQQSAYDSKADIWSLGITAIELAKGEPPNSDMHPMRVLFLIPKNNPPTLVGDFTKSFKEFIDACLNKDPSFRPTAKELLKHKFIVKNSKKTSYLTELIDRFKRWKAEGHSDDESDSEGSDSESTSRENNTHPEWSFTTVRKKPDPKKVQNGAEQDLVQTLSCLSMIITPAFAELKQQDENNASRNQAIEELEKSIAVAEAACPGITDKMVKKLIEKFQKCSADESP
# [4] = biological target: Cyclin-dependent kinase 14 (Homo sapiens, UniProt O94921); test: Inhibition of human PFTK1 by discoverX kinome scan assay
# [5] = biological target: Serine/threonine-protein kinase PAK 2 (Homo sapiens, UniProt Q13177); test: Inhibition of human PAK2 by discoverX kinome scan assay
# Chain of UniProt Q13177 (Q13177 whole entry): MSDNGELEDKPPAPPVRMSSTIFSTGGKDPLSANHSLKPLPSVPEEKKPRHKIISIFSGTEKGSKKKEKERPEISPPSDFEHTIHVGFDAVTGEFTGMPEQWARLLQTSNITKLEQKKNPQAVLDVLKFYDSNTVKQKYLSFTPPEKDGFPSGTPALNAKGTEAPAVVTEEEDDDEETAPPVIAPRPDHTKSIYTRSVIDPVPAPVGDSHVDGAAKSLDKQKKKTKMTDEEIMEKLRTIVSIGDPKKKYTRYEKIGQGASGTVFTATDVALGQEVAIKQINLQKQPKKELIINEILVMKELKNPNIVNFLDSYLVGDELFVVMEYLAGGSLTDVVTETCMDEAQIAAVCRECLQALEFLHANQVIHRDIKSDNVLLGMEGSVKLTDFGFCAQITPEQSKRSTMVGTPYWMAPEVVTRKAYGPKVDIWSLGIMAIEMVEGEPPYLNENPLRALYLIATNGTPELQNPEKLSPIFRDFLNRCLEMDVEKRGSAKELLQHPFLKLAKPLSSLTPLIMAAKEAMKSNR
# [6] = biological target: Phosphatidylinositol 4-kinase beta (Homo sapiens, UniProt Q9UBF8); test: Inhibition of human PIK4CB by discoverX kinome scan assay
# Chain of UniProt Q9UBF8 (Q9UBF8 whole entry): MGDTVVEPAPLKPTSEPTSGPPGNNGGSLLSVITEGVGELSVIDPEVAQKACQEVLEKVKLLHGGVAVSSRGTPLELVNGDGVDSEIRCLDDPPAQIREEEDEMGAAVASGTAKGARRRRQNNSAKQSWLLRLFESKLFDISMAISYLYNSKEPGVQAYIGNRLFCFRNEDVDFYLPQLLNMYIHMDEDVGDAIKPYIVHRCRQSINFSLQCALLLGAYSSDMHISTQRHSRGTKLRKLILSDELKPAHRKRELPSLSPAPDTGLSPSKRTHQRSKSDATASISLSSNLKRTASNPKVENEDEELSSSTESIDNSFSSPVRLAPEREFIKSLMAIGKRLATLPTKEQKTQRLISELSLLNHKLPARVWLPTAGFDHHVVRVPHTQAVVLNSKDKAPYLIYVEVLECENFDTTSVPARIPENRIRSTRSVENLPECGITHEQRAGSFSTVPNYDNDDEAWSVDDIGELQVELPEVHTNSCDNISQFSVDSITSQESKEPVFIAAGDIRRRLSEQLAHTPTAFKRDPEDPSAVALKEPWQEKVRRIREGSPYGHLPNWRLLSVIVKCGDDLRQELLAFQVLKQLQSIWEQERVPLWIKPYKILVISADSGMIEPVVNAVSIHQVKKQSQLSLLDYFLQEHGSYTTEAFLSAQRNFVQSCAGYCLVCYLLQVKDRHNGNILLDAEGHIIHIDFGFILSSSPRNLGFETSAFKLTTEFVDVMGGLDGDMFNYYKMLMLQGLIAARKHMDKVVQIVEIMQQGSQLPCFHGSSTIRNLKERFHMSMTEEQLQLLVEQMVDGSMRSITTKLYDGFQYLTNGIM
# KYSE-150 cell line [7] = test: Effect on cellular post-translational modifications on histone H3 (TKQTAR) - K4 di-methylated in human KYSE-150 cells assessed as relative abundance at 5 by mass spectrometric analysis (reference value: 2.6+/-0.6); assay type: functional; details: dose 5 µM; method in brief: as §1
# KYSE-520 cell line = test: Antiproliferative activity against human KYSE520 cells measured after 7 day by celltitre-glo luminescent assay; assay type: functional, cell-based; details: KYSE-520, 168 h
# [8] = biological target: Phosphatidylinositol 4,5-bisphosphate 3-kinase catalytic subunit alpha isoform (Homo sapiens, UniProt P42336, H1047L); test: Inhibition of human PIK3CA H1047L mutant by discoverX kinome scan assay
# [9] = biological target: Protein kinase C iota type (Homo sapiens, UniProt P41743); test: Inhibition of PRKCI (unknown origin) by discoverX kinome scan assay
# MCF7 = test: Antiproliferative activity against human MCF7 cells measured after 7 day by celltitre-glo luminescent assay; assay type: functional, cell-based; details: MCF7, 168 h
# [10] = Inhibition of human LYK by discoverX kinome scan assay
# [11] = biological target: Serine/threonine-protein kinase Nek9 (Homo sapiens, UniProt Q8TD19); test: Inhibition of human NEK9 by discoverX kinome scan assay
# [12] = biological target: Serine/threonine-protein kinase Nek5 (Homo sapiens, UniProt Q6P3R8); test: Inhibition of human NEK5 by discoverX kinome scan assay
# Chain of UniProt Q6P3R8 (Q6P3R8 whole entry): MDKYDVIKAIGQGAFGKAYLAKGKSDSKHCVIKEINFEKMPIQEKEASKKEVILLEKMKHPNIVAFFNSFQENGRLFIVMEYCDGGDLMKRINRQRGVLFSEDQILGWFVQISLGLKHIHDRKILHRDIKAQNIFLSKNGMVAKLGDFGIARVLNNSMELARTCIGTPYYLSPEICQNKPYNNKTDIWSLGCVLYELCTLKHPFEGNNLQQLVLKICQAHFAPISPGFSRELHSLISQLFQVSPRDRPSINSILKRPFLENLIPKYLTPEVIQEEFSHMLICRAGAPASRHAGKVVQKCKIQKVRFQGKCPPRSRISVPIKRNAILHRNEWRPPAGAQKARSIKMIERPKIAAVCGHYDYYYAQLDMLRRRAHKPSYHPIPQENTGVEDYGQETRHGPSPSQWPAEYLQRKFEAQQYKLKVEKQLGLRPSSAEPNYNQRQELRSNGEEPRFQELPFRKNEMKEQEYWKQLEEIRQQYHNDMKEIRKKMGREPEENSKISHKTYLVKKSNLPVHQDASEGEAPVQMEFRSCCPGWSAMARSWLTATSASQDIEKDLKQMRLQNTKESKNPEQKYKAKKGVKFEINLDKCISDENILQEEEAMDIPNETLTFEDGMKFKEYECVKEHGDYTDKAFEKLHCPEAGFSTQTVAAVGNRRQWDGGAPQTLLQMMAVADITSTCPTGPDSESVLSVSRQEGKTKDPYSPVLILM
# KYSE-150 cell line [13] = test: Effect on cellular post-translational modifications on histone H3 (KSTGGKAPR) - K9 unmethylated, K14 unmethylated in human KYSE-150 cells assessed as fold change by mass spectrometric analysis; assay type: functional; method in brief: as §1
# [14] = biological target: Serine/threonine-protein kinase Nek4 (Homo sapiens, UniProt P51957); test: Inhibition of human NEK4 by discoverX kinome scan assay
# [15] = biological target: Serine/threonine-protein kinase PLK2 (Homo sapiens, UniProt Q9NYY3); test: Inhibition of human PLK2 by discoverX kinome scan assay
# KYSE-270 = test: Antiproliferative activity against human KYSE-270 cells measured after 7 day by celltitre-glo luminescent assay; assay type: functional, cell-based; details: KYSE-270, 168 h
# [16] = Inhibition of human KIT-autoinhibited by discoverX kinome scan assay
# [17] = Inhibition of human ABL1 pE255K mutant by discoverX kinome scan assay
# [18] = biological target: Serine/threonine-protein kinase D1 (Homo sapiens, UniProt Q15139); test: Inhibition of PRKD1 (unknown origin) by discoverX kinome scan assay
# KYSE-150 cell line [19] = test: Effect on cellular post-translational modifications on histone H3 (KSTGGKAPR) - K9 monomethylated, K14 acetylated in human KYSE-150 cells assessed as relative abundance at 5 by mass spectrometric analysis (reference value: 6.2+/-0.7); assay type: functional; details: dose 5 µM
# [20] = biological target: 3-phosphoinositide-dependent protein kinase 1 (Homo sapiens, UniProt O15530); test: Inhibition of human PDPK1 by discoverX kinome scan assay
# [21] = biological target: Serine/threonine-protein kinase Nek11 (Homo sapiens, UniProt Q8NG66); test: Inhibition of human NEK11 by discoverX kinome scan assay
# Chain of UniProt Q8NG66 (Q8NG66 whole entry): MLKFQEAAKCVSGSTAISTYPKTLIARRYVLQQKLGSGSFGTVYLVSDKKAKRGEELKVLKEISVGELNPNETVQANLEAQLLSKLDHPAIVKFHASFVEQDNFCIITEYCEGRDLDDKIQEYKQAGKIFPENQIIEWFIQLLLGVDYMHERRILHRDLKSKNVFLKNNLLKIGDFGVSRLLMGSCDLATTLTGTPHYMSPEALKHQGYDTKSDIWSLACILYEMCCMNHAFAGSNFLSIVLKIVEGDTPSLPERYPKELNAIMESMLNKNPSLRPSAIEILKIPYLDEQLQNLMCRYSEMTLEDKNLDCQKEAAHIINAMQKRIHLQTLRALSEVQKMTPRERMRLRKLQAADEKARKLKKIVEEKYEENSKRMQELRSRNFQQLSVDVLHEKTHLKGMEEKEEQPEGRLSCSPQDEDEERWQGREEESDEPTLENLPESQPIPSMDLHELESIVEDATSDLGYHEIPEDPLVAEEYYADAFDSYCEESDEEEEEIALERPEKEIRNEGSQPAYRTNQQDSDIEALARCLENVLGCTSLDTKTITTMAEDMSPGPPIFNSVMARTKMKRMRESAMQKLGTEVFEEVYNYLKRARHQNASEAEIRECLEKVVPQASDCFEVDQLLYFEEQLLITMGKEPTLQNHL
# [22] = biological target: Serine/threonine-protein kinase D3 (Homo sapiens, UniProt O94806); test: Inhibition of PRKD3 (unknown origin) by discoverX kinome scan assay
# [23] = biological target: Cyclin-dependent kinase 17 (Homo sapiens, UniProt Q00537); test: Inhibition of human PCTK2 by discoverX kinome scan assay
# Chain of UniProt Q00537 (Q00537 whole entry): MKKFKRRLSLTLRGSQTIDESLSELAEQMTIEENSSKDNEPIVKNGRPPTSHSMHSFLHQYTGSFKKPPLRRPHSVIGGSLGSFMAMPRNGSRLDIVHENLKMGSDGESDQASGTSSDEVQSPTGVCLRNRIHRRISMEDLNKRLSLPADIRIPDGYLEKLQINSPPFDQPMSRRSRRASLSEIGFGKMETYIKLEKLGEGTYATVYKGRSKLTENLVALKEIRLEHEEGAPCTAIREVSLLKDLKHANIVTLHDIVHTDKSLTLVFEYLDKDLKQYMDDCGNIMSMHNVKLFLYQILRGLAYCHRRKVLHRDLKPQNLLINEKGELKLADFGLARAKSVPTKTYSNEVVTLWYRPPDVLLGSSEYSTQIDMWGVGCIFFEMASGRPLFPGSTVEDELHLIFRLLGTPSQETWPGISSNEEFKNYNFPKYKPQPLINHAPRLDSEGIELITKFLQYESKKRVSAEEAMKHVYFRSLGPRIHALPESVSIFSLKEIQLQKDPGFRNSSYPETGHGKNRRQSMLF
# [24] = biological target: Protein kinase C epsilon type (Homo sapiens, UniProt Q02156); test: Inhibition of human PRKCE by discoverX kinome scan assay
# Chain of UniProt Q02156 (Q02156 whole entry): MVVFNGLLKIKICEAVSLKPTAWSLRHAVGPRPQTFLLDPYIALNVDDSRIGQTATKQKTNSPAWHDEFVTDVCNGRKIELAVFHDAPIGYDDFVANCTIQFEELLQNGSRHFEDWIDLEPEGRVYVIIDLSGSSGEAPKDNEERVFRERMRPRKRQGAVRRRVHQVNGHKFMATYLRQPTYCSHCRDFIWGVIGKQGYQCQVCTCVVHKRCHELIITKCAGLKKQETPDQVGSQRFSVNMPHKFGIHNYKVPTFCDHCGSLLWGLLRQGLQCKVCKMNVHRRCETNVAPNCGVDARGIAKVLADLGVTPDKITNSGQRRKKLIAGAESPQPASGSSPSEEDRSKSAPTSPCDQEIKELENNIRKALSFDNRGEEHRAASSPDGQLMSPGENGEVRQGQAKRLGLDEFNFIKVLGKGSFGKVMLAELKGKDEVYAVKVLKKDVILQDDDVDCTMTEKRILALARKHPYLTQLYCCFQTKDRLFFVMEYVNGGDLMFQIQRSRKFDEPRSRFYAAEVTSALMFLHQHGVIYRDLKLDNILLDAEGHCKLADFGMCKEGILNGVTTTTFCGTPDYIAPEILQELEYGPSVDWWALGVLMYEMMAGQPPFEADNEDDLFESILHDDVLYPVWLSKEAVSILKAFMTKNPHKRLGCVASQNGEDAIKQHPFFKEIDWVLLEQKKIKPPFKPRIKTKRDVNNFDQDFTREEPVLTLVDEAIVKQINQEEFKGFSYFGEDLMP
# KYSE-150 cell line [25] = test: Effect on cellular post-translational modifications on histone H3 (TKQTAR) - K4 tri-methylated in human KYSE-150 cells assessed as fold change by mass spectrometric analysis; assay type: functional; method in brief: as §1
# [26] = biological target: Mitogen-activated protein kinase kinase kinase 11 (Homo sapiens, UniProt Q16584); test: Inhibition of human MLK3 by discoverX kinome scan assay
# MDA-MB-231 = test: Antiproliferative activity against human MDA-MB-231 cells measured after 7 day by celltitre-glo luminescent assay; assay type: functional, cell-based; details: MDA-MB-231, 168 h
# [27] = biological target: Phosphatidylinositol 4,5-bisphosphate 3-kinase catalytic subunit alpha isoform (Homo sapiens, UniProt P42336, C420R); test: Inhibition of human PIK3CA C420R mutant by discoverX kinome scan assay
# KYSE-150 cell line [28] = test: Effect on cellular post-translational modifications on histone H3 (KSTGGKAPR) - K9 acetylated, K14 unmethylated in human KYSE-150 cells assessed as relative abundance at 5 by mass spectrometric analysis (reference value: 2.1+/-0.9); assay type: functional; details: dose 5 µM
# KYSE-150 cell line [29] = test: Effect on cellular post-translational modifications on histone H3 (TKQTAR) - K4 unmethylated in human KYSE-150 cells assessed as relative abundance at 5 by mass spectrometric analysis (reference value: 85.5+/-0.9); assay type: functional; details: dose 5 µM; method in brief: as §1
# [30] = biological target: Phosphatidylinositol 4,5-bisphosphate 3-kinase catalytic subunit alpha isoform (Homo sapiens, UniProt P42336, E545A); test: Inhibition of human PIK3CA E545A mutant by discoverX kinome scan assay
# KYSE-150 cell line [31] = test: Effect on cellular post-translational modifications on histone H3 (KSTGGKAPR) - K9 unmethylated, K14 acetylated in human KYSE-150 cells assessed as fold change by mass spectrometric analysis; assay type: functional; method in brief: as §1
# [32] = biological target: cGMP-dependent protein kinase 1 (Homo sapiens, UniProt Q13976); test: Inhibition of PRKG1 (unknown origin) by discoverX kinome scan assay
# Chain of UniProt Q13976 (Q13976 whole entry): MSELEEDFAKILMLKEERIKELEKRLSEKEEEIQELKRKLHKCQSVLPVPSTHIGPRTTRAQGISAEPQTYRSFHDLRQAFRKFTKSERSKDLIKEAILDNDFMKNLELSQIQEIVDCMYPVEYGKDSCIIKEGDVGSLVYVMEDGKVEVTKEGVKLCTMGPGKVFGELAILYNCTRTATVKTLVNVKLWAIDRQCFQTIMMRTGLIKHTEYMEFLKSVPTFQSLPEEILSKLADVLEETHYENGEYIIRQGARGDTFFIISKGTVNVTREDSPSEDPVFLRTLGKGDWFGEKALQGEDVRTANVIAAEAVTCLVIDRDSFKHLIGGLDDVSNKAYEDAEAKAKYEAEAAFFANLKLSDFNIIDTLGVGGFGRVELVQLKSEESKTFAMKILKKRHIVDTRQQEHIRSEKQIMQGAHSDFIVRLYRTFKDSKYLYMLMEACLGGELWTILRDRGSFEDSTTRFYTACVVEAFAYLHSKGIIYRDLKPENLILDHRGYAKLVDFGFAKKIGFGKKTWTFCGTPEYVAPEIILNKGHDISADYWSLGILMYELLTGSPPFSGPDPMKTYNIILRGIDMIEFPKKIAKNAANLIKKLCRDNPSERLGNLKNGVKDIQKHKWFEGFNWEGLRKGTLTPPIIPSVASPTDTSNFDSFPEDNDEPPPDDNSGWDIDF
# [33] = Inhibition of human ABL1 pQ252H mutant by discoverX kinome scan assay
# KYSE-150 cell line [34] = test: Effect on cellular post-translational modifications on histone H4 (KVLR) - K20 trimethylated in human KYSE-150 cells assessed as relative abundance at 5 by mass spectrometric analysis (reference value: 0.8+/-0.1); assay type: functional; method in brief: as §1
compound,measurement,setting,value
Cc1cn(CCN2CCN(c3ccccc3-c3cc(C#N)cc(C(=O)NCCCN4CCCC4)c3)CC2)c2ccccc12,fold change (FC),KYSE-150 cell line [1],1
same,Activity,KYSE-150 cell line [2],74.8
same,IC50,[3],> 20 µM
same,IC50,[4],> 20 µM
same,IC50,[5],> 20 µM
same,IC50,[6],> 20 µM
same,Activity,KYSE-150 cell line [7],2.1
same,IC50,KYSE-520 cell line,0.3 µM
same,IC50,[8],> 20 µM
same,IC50,[9],> 20 µM
same,IC50,MCF7,0.3 µM
same,IC50,[10],> 20 µM
same,IC50,[11],> 20 µM
same,IC50,[12],> 20 µM
same,fold change (FC),KYSE-150 cell line [13],0.9
same,IC50,[14],> 20 µM
same,IC50,[15],> 20 µM
same,IC50,KYSE-270,0.3 µM
same,IC50,[16],> 20 µM
same,IC50,[17],> 20 µM
same,IC50,[18],> 20 µM
same,Activity,KYSE-150 cell line [19],8
same,IC50,[20],> 20 µM
same,IC50,[21],> 20 µM
same,IC50,[22],> 20 µM
same,IC50,[23],> 20 µM
same,IC50,[24],> 20 µM
same,fold change (FC),KYSE-150 cell line [25],1.3
same,IC50,[26],> 20 µM
same,IC50,MDA-MB-231,0.3 µM
same,IC50,[27],> 20 µM
same,Activity,KYSE-150 cell line [28],2.5
same,Activity,KYSE-150 cell line [29],83.8
same,IC50,[30],> 20 µM
same,fold change (FC),KYSE-150 cell line [31],1
same,IC50,[32],> 20 µM
same,IC50,[33],> 20 µM
same,Activity,KYSE-150 cell line [34],0.8
